Results taken from the supplement of paper PMC7826260.
The list shows a part of the results. Cleavage of a single-stranded DNA pool by Rep nickase domains was read by sequencing (3 µM enzyme, 1 h, 37 °C); shown is the middle of each 90-letter strand. The score is log2 (uncut reads / reads without enzyme); uncut sequences lie near 0, cut ones below; no hit call is given. Shares of all reads are compared; where an enzyme cuts many sequences, the uncut ones exceed 0.

Columns and labels:
Test in all cases: uncleaved DNA left, log2 of reads against the no-enzyme library (log2 ratio); higher = less cleavage (more negative = more Rep cleavage of the k-mer); sequences stand for … in CTCGTCCG…ACCGGAGA
[1] = test system: T1, Rep nickase domain of Muscovy duck circovirus
T1 sequence (residues 1-111, tag not shown): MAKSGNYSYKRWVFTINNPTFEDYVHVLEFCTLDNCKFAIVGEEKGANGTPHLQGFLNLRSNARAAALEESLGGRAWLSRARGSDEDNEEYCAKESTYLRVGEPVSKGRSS
Description: (§1)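 A pool of 90-nt single-stranded DNAs with seven random bases just before the constant AC of the nick site (name = the seven bases) was cut by 3 µM recombinant His6-SUMO-tagged Rep nickase domain (300 nM DNA, 50 mM HEPES pH 8.0, 50 mM NaCl, 1 mM MnCl2, 1 h, 37 °C, three replicates). Uncut DNA was amplified and sequenced.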

[2] = test system: T2, Rep nickase domain of banana bunchy top virus
T2 sequence (residues 1-94, tag not shown): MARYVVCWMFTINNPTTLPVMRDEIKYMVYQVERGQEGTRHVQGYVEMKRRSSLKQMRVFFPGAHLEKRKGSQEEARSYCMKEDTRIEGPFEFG
Description: as §1

[3] = test system: T3, Rep nickase domain of cabbage leaf curl virus
T3 sequence (residues 1-116, tag not shown): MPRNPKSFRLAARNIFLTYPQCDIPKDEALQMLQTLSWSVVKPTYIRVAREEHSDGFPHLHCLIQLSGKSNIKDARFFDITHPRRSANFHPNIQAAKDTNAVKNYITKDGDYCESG
Description: as §1

[4] = test system: T4, Rep nickase domain of chickpea chlorotic dwarf virus
T4 sequence (residues 1-124, tag not shown): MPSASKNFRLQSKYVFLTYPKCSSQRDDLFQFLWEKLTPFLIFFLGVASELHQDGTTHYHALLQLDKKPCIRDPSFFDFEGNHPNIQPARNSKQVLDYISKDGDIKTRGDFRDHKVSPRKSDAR
Description: as §1

[5] = test system: T5, Rep nickase domain of faba bean necrotic yellows virus
T5 sequence (residues 1-98, tag not shown): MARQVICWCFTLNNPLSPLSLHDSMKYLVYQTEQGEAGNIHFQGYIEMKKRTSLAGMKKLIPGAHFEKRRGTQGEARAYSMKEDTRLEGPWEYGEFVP
Description: as §1

[6] = test system: T6, Rep nickase domain of maize striate mosaic virus
T6 sequence (residues 1-117, tag not shown): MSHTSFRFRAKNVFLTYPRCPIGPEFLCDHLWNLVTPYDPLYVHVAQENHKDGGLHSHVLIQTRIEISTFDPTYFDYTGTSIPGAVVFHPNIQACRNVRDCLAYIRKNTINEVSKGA
Description: as §1

[7] = test system: T7, Rep nickase domain of porcine circovirus 2
T7 sequence (residues 2-116, tag not shown): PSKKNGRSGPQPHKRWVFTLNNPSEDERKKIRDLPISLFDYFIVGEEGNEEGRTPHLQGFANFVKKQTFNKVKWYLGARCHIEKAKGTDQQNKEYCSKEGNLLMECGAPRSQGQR
Description: as §1

[8] = test system: T8, Rep nickase domain of tomato golden mosaic virus
T8 sequence (residues 1-124, tag not shown): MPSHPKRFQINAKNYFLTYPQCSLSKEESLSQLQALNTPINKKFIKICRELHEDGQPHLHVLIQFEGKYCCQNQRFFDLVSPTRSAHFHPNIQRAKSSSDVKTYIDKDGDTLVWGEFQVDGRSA
Description: as §1

[9] = test system: T9, Rep nickase domain of tomato yellow leaf curl virus
T9 sequence (residues 1-136, tag not shown): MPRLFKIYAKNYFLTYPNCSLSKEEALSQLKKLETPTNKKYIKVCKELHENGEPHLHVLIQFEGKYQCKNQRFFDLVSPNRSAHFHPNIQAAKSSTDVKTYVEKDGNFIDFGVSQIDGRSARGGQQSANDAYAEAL
Description: as §1

[10] = test system: T10, Rep nickase domain of wheat dwarf virus
T10 sequence (residues 1-137, tag not shown): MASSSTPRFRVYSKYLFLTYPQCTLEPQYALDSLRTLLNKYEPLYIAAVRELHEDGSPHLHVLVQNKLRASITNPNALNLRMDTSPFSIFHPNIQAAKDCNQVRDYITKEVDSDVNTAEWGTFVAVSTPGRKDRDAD
Description: as §1

Sequence | uncleaved DNA left (log2) [1] | uncleaved DNA left (log2) [2] | uncleaved DNA left (log2) [3] | uncleaved DNA left (log2) [4] | uncleaved DNA left (log2) [5] | uncleaved DNA left (log2) [6] | uncleaved DNA left (log2) [7] | uncleaved DNA left (log2) [8] | uncleaved DNA left (log2) [9] | uncleaved DNA left (log2) [10]
TACCCAG | -0.0376 | -0.0398 | -0.678 | -1.09 | 0.0706 | -1.23 | -1.15 | -0.121 | -0.034 | -0.204
AGAGCCC | -0.161 | -0.0757 | 0.571 | 1.26 | 0.0359 | 1.73 | -0.106 | -0.00928 | -0.033 | 0.0296
CCAAGTC | 0.0453 | 0.00654 | -0.94 | -0.923 | -0.0254 | -0.562 | 0.216 | -0.0633 | -0.024 | -0.00538
TTCTCGC | -0.00877 | -0.118 | -0.485 | -0.867 | -0.0823 | -1.18 | -0.0379 | -0.239 | -0.213 | -0.128
CGCGACG | 0.169 | 0.091 | 0.0115 | 0.674 | 0.0478 | 1.3 | 0.183 | 0.107 | -0.0223 | 0.0623
TGACGGT | 0.0276 | 0.0689 | 0.211 | 0.485 | -0.13 | 1.3 | -0.259 | 0.0803 | 0.0164 | -0.0491
TCATGCC | 0.0938 | 0.0135 | -0.46 | -0.525 | 0.105 | -1.05 | 0.207 | -0.0495 | 0.0931 | -0.0454
GCGACTT | 0.102 | 0.244 | 0.223 | 0.774 | 0.0746 | 1.85 | 0.0097 | 0.0597 | 0.115 | 0.172
CTAACGA | -0.0388 | 0.0648 | -0.51 | -0.725 | 0.107 | -1.01 | 0.139 | -0.0153 | -0.0282 | -0.107
TGCTAGG | 0.0791 | 0.126 | 0.448 | 1.08 | -0.00117 | 1.26 | 0.0642 | 0.123 | -0.0723 | 0.134
CATATAA | 0.0759 | 0.161 | -0.125 | -0.372 | 0.0306 | -0.773 | 0.162 | 0.0291 | 0.107 | 0.21
ATCCTAC | -0.175 | -0.107 | -0.394 | -2.24 | -0.0285 | -0.93 | -0.139 | -0.0975 | -0.184 | 0.00207
TTTACTG | 0.0241 | 0.126 | -0.0515 | 0.113 | 0.0117 | 1.07 | 0.0457 | -0.0372 | 0.00152 | 0.0462
GAGCAGA | 0.021 | 0.099 | 0.267 | 0.776 | 0.00499 | 0.763 | -0.0456 | 0.017 | -0.0629 | 0.0313
CAACTGT | 0.114 | -0.0391 | -0.185 | -0.381 | -0.0323 | 0.553 | 0.0348 | -0.0839 | -0.118 | 0.0119
TGAACGG | 0.11 | 0.123 | 0.565 | 1.66 | 0.0607 | 2.11 | 0.199 | 0.188 | -0.0251 | 0.174
TATCCAC | -0.127 | -0.0482 | 0.0495 | -0.296 | -0.0758 | -0.374 | -0.087 | -0.124 | -0.0323 | -0.0382
CAATTAC | -0.0929 | -0.132 | -1.6 | -2.96 | -0.117 | -1.15 | -0.132 | -0.263 | -0.0793 | -0.292
GCACTCC | 0.00726 | -0.0179 | -0.0345 | 0.363 | 0.0119 | 1.06 | 0.032 | -0.068 | -0.0694 | 0.0803
CGGAACG | -0.129 | -0.0692 | -0.675 | -0.466 | -0.0604 | -0.77 | 0.0779 | -0.228 | -0.159 | -0.185
AGGCTCA | -0.0266 | 0.024 | 0.262 | 0.14 | 0.0101 | 0.664 | 0.0723 | -0.0156 | 0.00522 | -0.00621
GTACCGT | -0.00795 | 0.109 | 0.244 | 0.438 | -0.0523 | 0.849 | -0.099 | 0.0373 | 0.0309 | 0.0557
AATTCAC | -0.104 | 0.0153 | -0.0705 | -0.461 | 0.00391 | -0.945 | -0.36 | -0.0232 | 0.0673 | 0.122
GGAGGCC | 0.000455 | -0.0249 | 0.648 | 1.41 | -0.0673 | 1.76 | 0.161 | 0.0253 | -0.012 | 0.158
CCTGAAA | 0.131 | 0.0312 | 0.0394 | 0.081 | 0.116 | -0.493 | 0.0461 | 0.174 | 0.122 | 0.129
CAACGCA | 0.133 | 0.11 | -0.237 | -0.694 | 0.0676 | -0.653 | -0.0105 | -0.0549 | 0.0158 | -0.0123
GTACGCG | 0.0989 | 0.0481 | -0.8 | -0.243 | 0.0168 | -0.682 | 0.167 | -0.00935 | 0.0374 | -0.0218
AAGGTTC | -0.0516 | -0.239 | 0.0544 | 0.601 | -0.203 | 0.633 | -0.00813 | -0.0671 | -0.151 | -0.213
TGCCCCT | -0.164 | -0.101 | -0.0127 | -0.963 | -0.128 | 0.0626 | -0.338 | -0.151 | 0.116 | -0.0798
CGCCTAA | 0.0256 | -0.146 | -0.251 | -0.27 | -0.112 | -0.474 | -0.0499 | -0.125 | -0.107 | -0.0495
